Source: US20230413822A1, “ORAL CANINE FEED AND METHODS FOR C[…] INFESTATIONS IN A CANINE” (In the Bowl Animal Health, Inc., priority 2021, published 2023)
Several values for one entry are separate records, joined by “and”; a condition that tells them apart may be missing. Identical values can stand only once. Further values from the same series stand in other lists.

Test: Plasma concentration of mivorilaner in dogs given an oral liquid formulation daily (Example 1)
Type: in vivo
Settings: individual canines, days 0-29
Source text: Methods: A pool of 14 dogs are to be preliminarily infested with ˜100 unfed adult C. felis in order to produce dogs that can suitably sustain a reliable infestation rate, defined as approximately 50% fleas being live at the end of a 48-hour period. The 12 dogs with the highest live flea counts are to be selected for inclusion in the study. The dogs are to be divided into a control group and a treatment group.
The dogs are to be housed individually during the study period and are to be fed a commercial dry dog food ration with ad libitum access to water.
Each dog in the treatment group is to receive by mouth a liquid formulation of isoxazoline. The dosage of 0.75 mg/kg is to be administered to the dogs on each of days 0-29.
Dogs in the control group are not to receive isoxazoline or any other tick control treatment. Each dog in the treatment group is to be offered its daily ration (dry food) and the individual doses of liquid formulation are to be administered after the individual dog has eaten at least 25% of its total daily ration. After receiving the dose of isoxazoline, the dogs are to be allowed to continue eating. This mimics incorporating the isoxazoline in feed. Each dog in the treatment group and the control group is to be experimentally infested with 50 adult ticks on test days 5, 12, 19, 28 and 35. Comb counts for live and moribund attached ticks are to be conducted on days 7, 14, 21, 30 and 37.

Q: Which results are given for `O=C(CNC(=O)c1sc(C2=NO[C@@](c3cc(Cl)c(F)c(Cl)c3)(C(F)(F)F)C2)c2c1CCC2)NCC(F)F` [Mivorilaner, 3-[(5S)-5-(3,5-dichloro-4-fluorophenyl)-5-(trifluoromethyl)-4,5-dihydroisoxazol-3-yl]-N-[2-[(2,2-difluoroethyl)amino]-2-oxoethyl]-5,6-dihydro-4H-cyclopenta[c]thiophene-1-carboxamide]?
A: Mivorilaner Concentration (Day 3, 0.75 mg/kg/day oral): 800 ng/mL and 798 ng/mL; Mivorilaner Concentration (Day 7, 0.75 mg/kg/day oral): 1660 ng/mL; Mivorilaner Concentration (Day 14, 0.75 mg/kg/day oral): 2370 ng/mL and 2060 ng/mL; Mivorilaner Concentration (Day 21, 0.75 mg/kg/day oral): 2950 ng/mL and 2660 ng/mL; Mivorilaner Concentration (Day 30, 0.75 mg/kg/day oral): 2790 ng/mL; Mivorilaner Concentration (Day 37, 0.75 mg/kg/day oral): 1980 ng/mL and 1750 ng/mL
